Screen size: about 52,000 compounds; about 1,700 (3.3%) were called active. No stated cut-off is given here; in the data, active means survival mostly below about 52% (no sharp cut-off); inactive means mostly above about 56%. The list shows a part of the results.

In this assay the test system is Wild type. In words: S. aureus survival, RN4220 and DeltatarO strains – OD600, teichoic acid synthesis inhibitors, primary screen (AID 463173). The conditions noted are these: S. aureus RN4220 wild type/DeltatarO growth, OD600, 18 h, active compounds read low, screened at 18.75 µg/mL (by protocol).
As to `COc1cc(NC(=O)Cc2noc3ccccc23)cc(OC)c1OC`, the survival was inactive: 97%.
Then `O=C(CN1C(=O)COc2ccc(S(=O)(=O)N3CCCCCC3)cc21)N1CCN(c2ccc(Cl)cc2)CC1`, with inactive: 136%.
For `CCOC(=O)c1ccc(NC(=O)CC(C)n2nc(C)cc2C)cc1` (stereo not given) the value was inactive: 146%; for `Cc1ccc(C)c(Nc2nn3c(=O)c4ccc(C(=O)NCc5ccccc5)cc4nc3s2)c1`, inactive: 66%.
As for `COc1ccc(CNC(=O)c2cc(-c3ccc(Br)s3)nc3ccccc23)cc1`, the survival was inactive: 84%.
Then `Cc1cccc(-n2ncc3c(NNC(=O)c4ccccc4Cl)ncnc32)c1`, with inactive: 75%.
As for `COc1ccc(-c2ccc(=O)n(CC(=O)Nc3cc(OC)ccc3OC)n2)cc1`, the survival is inactive: 59%.
For `CCCc1oc(C(=O)O)cc1CN1CCOCC1` the value was inactive: 117%; for `O=c1[nH]c(C2CCCN(S(=O)(=O)c3ccccc3)C2)nc2c1nnn2Cc1ccccc1Br` (stereo not given), inactive: 101%.
For `CCOC(=O)c1cccc(NC(=O)Nc2c(C)n(C)n(-c3ccccc3)c2=O)c1` the value was inactive: 78%; for `CCCCN(CC)CCCNC(=O)c1cn(C)c(=O)c2c1c1ccccc1n2C`, inactive: 133%.
For `Cc1cccc(C)c1NC(=O)Cn1cc(C(=O)C2CC2)c2ccccc21` the value was inactive: 68%; for `Cc1nn(CCC(=O)Nc2cccc(C#N)c2)c(C)c1S(=O)(=O)N1CCCCC1`, inactive: 85%.
As for `COc1cccc(C(=O)Nc2nnc(S(=O)(=O)N3CCCc4ccccc43)s2)c1`, the survival is inactive: 20%.
Then `Cc1ccc(C)c(CN2C(=O)c3ccccc3S(=O)c3ccc(C(=O)N4CCCCC4)cc32)c1` (stereo not given), with inactive: 103%; and `COc1ccc(OC)c(S(=O)(=O)NCCS(=O)(=O)N2CCN(c3ccccc3F)CC2)c1`, with inactive: 76%.
Then `CCS(=O)(=O)NCCc1csc2nc(-c3ccc(OC)cc3)nn12`, with inactive: 60%.
Consider `CCc1cnc2c(c1SCc1cc(OC)cc(OC)c1)c(=O)n(C)c(=O)n2C`, for which the survival is inactive: 83%.
For `CSc1ncc(C(=O)NCc2cccc(C)c2)c(-c2ccccc2)n1` the value was inactive: 65%; for `COc1ccccc1/C=C/C(=O)Nc1nc2n(n1)C(c1ccc(F)cc1)C=C(c1ccccc1)N2` (stereo not given), inactive: 74%; for `Cc1ccc(OCCn2c(C3CC(=O)N(Cc4ccc(F)cc4)C3)nc3ccccc32)c(C)c1` (stereo not given), active: -15%.
For the compound `O=C(Nc1ccccn1)C(=NO)C(=O)Nc1ccccn1`, the survival was inactive: 111%.
For `O=S(=O)(NCC(c1ccccc1)N1CCc2ccccc21)c1ccc(Cl)cc1` (stereo not given) the value was inactive: 81%; for `C=CCc1ccccc1OCCSc1nc(-c2ccccc2F)nc2cc(=O)[nH]n12`, inactive: 80%; for `Cc1cccc(N2CCN(c3nc4ccccc4c4nnc(C)n34)CC2)c1C`, inactive: 98%.
`COc1ccc(CNC(=O)Cn2cccc2C(=O)c2ccccc2C)cc1`: the survival is inactive: 86%.
For `CCN(CC)C(=O)c1sc2c(c1C)c(=O)n(-c1ccc(OC)cc1OC)c(=O)n2CC(=O)Nc1ccccc1`, the survival is inactive: 89%.
Regarding `COc1ccc(C(=O)c2cn(Cc3ccccc3OC)c3cc4c(cc3c2=O)OCO4)cc1`, the survival was inactive: 79%.
Then `Cc1cccc(NC(=O)c2c(NC(=O)c3ccccc3)sc3c2CCC3)c1`, with inactive: 80%.
Take `Cc1cc(C)cc(-n2ccnc2SCC(=O)Nc2ccccc2F)c1`: the survival is inactive: 83%.
For `COc1ccc(OCC(=O)NCc2ccc3c(c2)CCN3C(=O)c2cccc(C)c2)cc1` the value was inactive: 72%; for `CC(=O)N1CCCC1c1nc2ccccc2n1Cc1cccc(C)c1` (stereo not given), inactive: 85%.
Regarding `CSc1ccc(CCNC(=O)c2ccc(-n3c(C)cc4c3CCC(C)C4)cc2)cc1` (stereo not given), the survival was inactive: 152%.
Then `COc1ccc2c(c1)c(CC(=O)Nc1c(C)cccc1C)c(C)n2C(=O)c1ccc(Cl)cc1`, with inactive: 80%.
Then `Cc1cc(C)cc(NC(=O)CCn2cnc3ccccc3c2=O)c1`, with inactive: 90%; and `CCOc1ccccc1NC(=O)Cn1c(=O)n(-c2ccc(C)cc2)c(=O)c2c1cnn2C`, with inactive: 70%; and `CCc1cccc(NC(=O)CC(c2ccc(OC)cc2)N2Cc3ccccc3C2=O)c1` (stereo not given), with inactive: 73%.
`Cc1cc(C(=O)Nc2ccccc2C(=O)O)c(C)o1`: the survival was inactive: 83%.
Then `CC(C)c1ccc(C2NC(=O)c3c(sc4c3CCN(C)C4)N2)cc1` (stereo not given), with inactive: 71%; and `CCOc1ccc(N(CC(=O)OC)S(=O)(=O)c2ccc3c(c2)n(C)c(=O)c(=O)n3C)cc1`, with inactive: 64%.
For `CCC(C)NC(=O)Cn1c(=O)n(-c2ccc(Cl)cc2)c(=O)c2c3c(sc21)CCCC3` (stereo not given) the value was inactive: 89%; for `COc1ccc(NC(=O)c2ccc(NC(=O)CCS(=O)(=O)c3cccs3)cc2)cc1Cl`, inactive: 81%; for `Cc1ccc(-n2nnnc2SCC(=O)NCCc2ccccc2)cc1C`, inactive: 60%.
For `CCCCC(=O)OC1=CN(Cc2ccccc2)S(=O)(=O)c2ccccc21` the value was inactive: 114%; for `CC(=O)Nc1ccc(NCc2cccs2)cc1`, inactive: 98%.
On to `Clc1cccc(-c2cc3nc4c(c(N5CCCCC5)n3n2)CCCC4)c1`, for which the survival is inactive: 105%.
For `Cc1ccc(C)c(N2CCN(C(=O)c3c(C)oc4nc(C)nc(N5CCOCC5)c34)CC2)c1` the value was inactive: 82%; for `CCc1nnc(NC(=O)CSc2nccn2Cc2ccc(Cl)cc2)s1`, inactive: 77%; for `CCCc1nnc(SCc2cc(=O)c3c(C)cc(C)cc3[nH]2)n1C`, inactive: 66%.
For `C=CCC(CC=C)(CNC(=O)C(=O)Nc1ccc(Br)cc1)c1ccc(OC)c(OC)c1`, the survival is inactive: 90%.
For `Cc1ccc(OCCCn2c(-c3ccc(Cl)cc3)nc3ccccc3c2=O)cc1C` the value was inactive: 65%; for `O=C(Nc1ccc(F)cc1F)C1CCN(C(=O)c2cnn(-c3ccccc3)c2-n2cccc2)CC1`, inactive: 129%; for `O=C(NCC(c1ccc2c(c1)OCO2)N1CCN(c2ccccc2)CC1)c1ccc(F)c(F)c1` (stereo not given), inactive: 68%.
Then `O=C(O)CNc1ccc2nncn2n1`, with inactive: 103%; and `O=C(NCc1cccc(Cl)c1)c1cnc(N2CCOCC2)c2ccccc12`, with inactive: 68%; and `Cn1cccc1-c1cc2n(n1)CCC(=O)N2CCCC(=O)NCc1cccc(Cl)c1`, with inactive: 87%.
Then `CCN(CC)C(=O)CSc1nnc2c3ccccc3n(C)c2n1`, with inactive: 112%.
Take `CCc1ccc(CNC(=O)Cn2nc(C)c3nn(-c4ccc(Cl)cc4)c(C)c3c2=O)cc1`: the survival was inactive: 74%.
On to `CCOc1ccc(NS(=O)(=O)c2c(C)nc3sc(CC)nn3c2=O)cc1`, for which the survival is inactive: 76%.
As to `COCCNC(=O)c1ccc2c(c1)ncn2-c1cc(C)ccc1OC`, the survival was inactive: 73%.
As to `Cc1ccc(C)c(NC(=O)c2nc(S(=O)(=O)Cc3ccc(F)cc3)ncc2Cl)c1`, the survival was inactive: 109%.
Then `CCCn1c(N2CCN(CC(=O)NCc3cccs3)CC2)nc2ccccc21`, with inactive: 114%.
With `Cc1nnc(NC(=O)CSc2nccn2Cc2ccccc2)s1`, the survival is inactive: 88%.
Then `CSCCC(NS(=O)(=O)c1ccc2c(c1)oc(=O)n2C)C(=O)NCc1ccc(Cl)cc1` (stereo not given), with inactive: 83%; and `COc1ccccc1NC(=O)c1ccc(C)o1`, with inactive: 104%; and `CCS(=O)(=O)c1ncc(N(Cc2ccccc2)Cc2ccco2)c(C(=O)Nc2ccccc2C)n1`, with inactive: 89%.
For `CCOC(=O)c1cccc(N(C(=O)Cn2nnc3ccccc32)C(C(=O)NCC2CCCO2)c2nc3ccccc3n2C)c1` (stereo not given) the value was inactive: 103%.
On to `CCc1ccccc1S(=O)(=O)Cc1ccc(C(=O)NCCc2ccc(Cl)cc2)o1`, for which the survival was inactive: 81%.
Take `O=C(Nc1cc(-c2cccc(Cl)c2)nn1-c1ccccc1)c1ccccc1F`: the survival is inactive: 72%.
Then `O=C(Cc1ccc(Cl)cc1)NCCc1csc2nc(-c3ccccc3F)nn12`, with inactive: 69%; and `CC(C)CCNc1nc(Nc2ccccc2)c2cnn(C)c2n1`, with inactive: 71%; and `CCOC(=O)c1ccc(-n2c(CCC(=O)O)ccc2-c2ccccc2)cc1O`, with inactive: 60%.
For `CCC(C)(C)NC(=O)C(NS(=O)(=O)c1cccs1)c1ccccc1` (stereo not given), the survival was inactive: 82%.
For `Cc1cc(F)ccc1Nc1nc2ccc(Cl)cc2n2cnnc12` the value was inactive: 74%.
On to `COc1ccc(N2CCN(C(=O)C(CC(C)C)NS(=O)(=O)c3ccc4nc(C)sc4c3)CC2)cc1` (stereo not given), for which the survival was inactive: 73%.
On to `CCOC(=O)C1=C(CN2c3ccccc3CC2C)NC(=O)NC1c1ccccc1` (stereo not given), for which the survival was inactive: 115%.
`CC(CC(=O)Nc1ccc(F)cc1)S(=O)(=O)c1cc2c3c(c1)CCN3C(=O)CC2` (stereo not given): the survival was inactive: 83%.
On to `O=C(Cn1nnc2ccccc2c1=O)NC1CCCCC1`, for which the survival is inactive: 105%.
For `O=C(NC1CCCCC1)c1ccc2c(c1)N(Cc1cccc(Cl)c1)C(=O)c1ccccc1S2(=O)=O` the value was inactive: 88%; for `Cc1ccc(CNc2cc(C)nc3nc(-c4ccc(C)cc4)nn23)cc1`, inactive: 66%.
For `COC(=O)c1ccccc1NC(=O)CSc1nc2ccccc2nc1Cc1ccc(F)cc1` the value was inactive: 76%.
Then `CNc1ccc(-c2nc(-c3ccncc3)no2)cc1[N+](=O)[O-]`, with inactive: 120%; and `c1ccc(Sc2ncnc3c2oc2ccccc23)cc1`, with inactive: 111%; and `CC1Oc2ccccc2N(CC(=O)c2ccccc2)C1=O` (stereo not given), with inactive: 102%.
`COc1ccc(CNC(=O)CCc2c(C)nc3cc(-c4ccc(OC)cc4OC)nn3c2C)cc1`: the survival is inactive: 80%.
For `Cc1ccccc1-c1nnc(C2CCC(c3ccccc3)CC2)o1` (stereo not given) the value was inactive: 112%.
With `Fc1ccc(-c2cc(-c3ccc(F)cc3)c3c(n2)-c2cc(F)ccc2OC3)cc1`, the survival is inactive: 118%.
Turning to `Fc1ccc(Nc2nc(-c3cccc(Cl)c3)c3c(n2)-c2ccccc2OC3)c(F)c1`, the survival is inactive: 109%.
Then `Cc1cccc(NC(=O)Cn2c(=O)n(CC3CCC(C(=O)NCCc4ccccc4)CC3)c(=O)c3ccccc32)c1` (stereo not given), with inactive: 64%; and `CCOc1ccc2nc(N3CCCC(C(=O)Nc4ccccc4CC)C3)sc2c1` (stereo not given), with inactive: 81%.
